# According to PMC12040169 (PLOS Biology, 2025):
# This is one part of the list.
# Test system: T1, C. trachomatis L2/434/Bu expressing GFP (CTL2-GFP)
# T1 construct: L2/434/Bu GFP intracellular growth in HeLa cells
# Set-up: species or system HeLa; C. trachomatis total inclusion area by high-content imaging, normalised to DMSO
# Conditions: total inclusion area; 28.5 h, 10 µM; inhibitor
# Method in brief: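 Imaging read-out: GFP inclusions and Hoechst nuclei captured by high-content imaging after fixation. Inclusion area/number = chlamydial growth; nuclei count = host cell viability. MIC calculated per earlier method.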
row,SMILES,% of control remaining
1,Cc1ccc(OCC(=O)Nc2sc3c(c2C#N)CCCC3)cc1 [CBK263548],98.8564
2,COC(=O)c1c(NS(=O)(=O)c2cccc(Cl)c2)csc1C [CBK026678],107.414
3,Cn1c(CNC(=O)c2ccc(Cl)cc2)nnc1SCC(=O)c1ccc(Br)cc1 [CBK266145],119.398
4,O=C(C1c2ccccc2Oc2ccccc21)N1C2CCC1CC(O)(c1ccco1)C2 (stereo not shown) [CBK286169],81.3428
5,CCS(=O)(=O)N1C2CCC(C2)[C@H]1COc1ccc(F)cc1 (stereo partly shown) [CBK285280],74.9773
6,O=C(O)c1cccc(-c2cncc(NCCCN3CCOCC3)n2)c1 [CBK037850],95.9825
7,O=C(Nc1ccc(N2CCN(Cc3ccccc3)CC2)cc1)c1nc[nH]n1 [CBK266960],77.0113
8,Nc1nonc1-n1cc(CN2CCCCC2)nn1 [CBK307044],20.5281
9,C=CCn1c(SCC(=O)Nc2cccc(C(F)(F)F)c2)nnc1C12CC3CC(CC(C3)C1)C2 [CBK266054],88.3587
10,OCCCc1nc2ccccc2n1CCOc1ccccc1 [CBK297728],91.9052
11,COc1ccc(C(=O)Nc2ccccc2C(=O)Nc2cccc([N+](=O)[O-])c2)cc1 [CBK265894],105.089
12,CC1CN(C(=O)CCn2c(C(F)F)cc3cccnc32)CC(C)O1 (stereo not shown) [CBK284984],130.665
13,Cc1cccc2cc3c(nc12)OCCN(C)C3 [CBK285192],108.301
14,Cc1cc(COc2ccnc(N3CCCN(CCCC#N)CC3)n2)no1 [CBK084144],93.4199
15,CC(C(=O)N1CCCC(COc2ccc(F)cc2)C1)n1ccnc1 (stereo not shown) [CBK282027],85.082
16,Cc1ccccc1OCC(=O)Nc1ccc(C(=O)O)c(Cl)c1 [CBK287027],102.158
17,CN(C(=O)CN1CCN(c2cc(-c3cccc4oc5ccccc5c34)ncn2)CC1)c1ccccc1 [CBK091130],141.279
18,CC(C)C(=O)Nc1cc2ccccc2c(-c2cccc(C(F)(F)F)c2)n1 [CBK085738],72.4497
19,CN1CCN(S(=O)(=O)c2ccc(Oc3ccccc3)cc2)CC1 [CBK062430],110.229
20,CN1CCCN(c2cncc(-c3cccc(OC(F)(F)F)c3)n2)CC1 [CBK065949],69.293
21,O=C(NCC1CCCCC1)C1(Cc2cccc(-c3cccnc3)c2)CCOCC1 [CBK285607],105.53
22,O=C(Nc1cccc(Cl)c1)N(Cc1ccncc1)CC1CCCO1 (stereo not shown) [CBK305362],105.628
23,Cc1nc(SCC(=O)NCC2CCCOC2)oc1C (stereo not shown) [CBK282195],98.5637
24,COc1ccc(S(=O)(=O)N(C)CC(=O)Nc2cccc(F)c2)cc1Cl [CBK267882],96.3132
25,CNC(=S)N1CCN(c2nccnc2NS(=O)(=O)C2CC2)CC1 [CBK048905],73.5251
26,CC(=O)NC[C@H]1CN(c2ccc(C3CNC3)c(F)c2)C(=O)O1 [CBK013035],43.8494
27,Cc1ccccc1OCCCn1cncc1-c1cnn(C)c1 [CBK281762],89.8962

row,SMILES,% of control remaining
1,Cn1cc(C2c3ccccc3C(=O)N2CC(=O)O)c2ccccc21 (stereo not shown) [CBK286555],89.2564
2,CCCCCSc1c(C#N)nc(N2CCOCC2)c2c1CC(C)(C)OC2 [CBK021748],69.2741
3,CCOc1ccc(NC(=O)C2C3c4ccccc4C(c4ccccc43)C2C(=O)O)cc1 (stereo not shown) [CBK261544],110.35
4,COc1cccc2cc(C(=O)C3=C(O)C(=O)N(CCN4CCOCC4)C3c3cccc(Cl)c3)oc12 (stereo not shown) [CBK266599],107.439
5,COc1ccc2nc(Nc3nc4c(s3)C(=O)CC(C)(C)C4)sc2c1 [CBK287481],113.86
6,CC(C)(C)OC(=O)Nc1ccc(Nc2cc(-c3ccc(F)c(F)c3)ncn2)cc1 [CBK091143],126.956
7,C=CCNc1nccnc1-c1ccc(CO)cc1 [CBK036870],95.5817
8,CC(=O)c1cc(C(=O)NC(c2ccccc2)c2cccnc2)cs1 (stereo not shown) [CBK282514],118.339
9,CC(C)c1nc(CCN(C)C(=O)NCc2cc(-c3ccco3)on2)no1 [CBK307443],108.074
10,CC(NS(=O)(=O)N(C)C)c1ccccc1 (stereo not shown) [CBK263819],49.839
11,O=C(Cc1nnn[nH]1)N1CCC(Cn2cncn2)(C2CCCCC2)CC1 [CBK136796],94.0488
12,CN(CC(=O)NCc1ccco1)C1CCCCC1 [CBK304471],60.4105
13,Cc1nc(C2CC(O)C2)cc(N(C)CCOc2cccc(Cl)c2)n1 (stereo not shown) [CBK307691],102.95
14,O=C(O)c1ccccc1C(=O)NCCC1=CCCCC1 [CBK287113],96.812
15,O=C1CSC(c2ccc(F)cc2Cl)c2c[nH]nc2N1 (stereo not shown) [CBK287935],55.7336
16,NNC(=O)c1c(NC(=O)c2ccccc2)sc2c1CCC2 [CBK262516],125.916
17,CCN(CC)Cc1c(O)ccc2c(C#N)c(C)n(-c3ccccc3)c12 [CBK261527C],89.4949
18,CN(C)CCNC(=O)c1cc(-c2cccnc2)nc2c(Cl)cccc12 [CBK267761],87.6023
19,Fc1ccc2nc(Nc3nc(-c4ccncc4)cs3)sc2c1 [CBK287487],104.31
20,Nc1ccc2c(-c3ccsc3)ccnc2n1 [CBK067637],50.7059
21,COc1cccc2cc(C3CN(C(=O)C(C)(C)NC(=O)OC(C)(C)C)CC3C(=O)O)oc12 (stereo not shown) [CBK001348],60.73
22,O=CN1CCc2c([nH]c3ccccc23)C12CCN(CC1CC1)CC2 [CBK040315],101.552
23,NC(=O)C1(Cc2ccc(-c3ccccc3)cc2)CCN(C(=O)c2ccccc2)CC1 [CBK285789],95.734
24,CC(Oc1ccccc1)C(=O)Nc1cccc(C#N)c1 (stereo not shown) [CBK264062],108.228
25,CC(=O)N1CCC[C@H]2NC(=O)CNC(=O)C3(C/C=C/C[C@H]21)CCN(C(=O)CCC(=O)O)CC3 [CBK292174],110.489
26,O=C(Nc1c(F)cc(F)cc1OC1CCNCC1)c1ccnc2ccccc12 [CBK050277T],92.7316
27,Cc1ccc(OCc2occc2C(=O)N2CCCn3cncc3C2)cc1 [CBK306618],74.7757

row,SMILES,% of control remaining
1,COC(=O)c1c(NC(=O)CC2SCC(C(=O)OC)NC2=O)sc2c1CCCC2 (stereo not shown) [CBK263834],93.2695
2,COC(=O)C1=COC(C)C2CN3CCC4(NC(=O)c5c4ccc(OC)c5OC)C3CC12 (stereo not shown) [CBK003303],97.6781
3,COCCOCC(=O)N1CCC2(C/C=C/C[C@H]3COCC[C@H]3NC(=O)CNC2=O)CC1 [CBK292170],104.119
4,CC(=O)Nc1ccc2c(CSc3nnc(-c4ccco4)n3C)cc(=O)oc2c1 [CBK297534],105.158
5,Cc1ccc(S(=O)(=O)NC2(C(F)(F)F)NC(=O)N(c3ccc(F)c(Cl)c3)C2=O)cc1 (stereo not shown) [CBK267473],98.6134
6,Cc1ccc2c(c1)OC1(CCN(C(=O)c3c(-c4ccccc4)nc4ccccn34)CC1)CC2=O [CBK167871],93.582
7,CCCCC1CCC(C(=O)Nc2cc(C)c3c(=O)oc4ccccc4c3n2)CC1 (stereo not shown) [CBK291136],81.2406
8,CCOC(=O)CCCNC(=O)N1CCCC(C(=O)N(CC)CC)C1 (stereo not shown) [CBK156158],100.002
9,O=c1[nH]c2ccccc2nc1-c1cc(Br)ccc1NCc1ccccc1 [CBK088071],102.04
10,CN1CC(C(=O)N(C)Cc2nc(-c3ccccc3)no2)NC1=O (stereo not shown) [CBK306727],49.1289
11,COc1cc2c(cc1OC)CN(C(=O)Cn1cc(C)c(=O)[nH]c1=O)CC2 [CBK122745],100.995
12,Clc1ccc(-c2c[nH]cn2)cc1 [CBK027542],93.6318
13,COc1cc([C@@H]2c3cc4c(cc3[C@H](O)[C@H]2C(=O)Nc2ccccc2)OCO4)cc(OC)c1OC [CBK200106],73.3494
14,Cc1cc2nc(SCc3nc4ccccc4[nH]3)[nH]c2cc1C [CBK264233],107.069
15,CC(=O)Oc1ccccc1C(=O)Oc1ccc2c(c1)c(C(C)=O)c(C)n2-c1ccccc1 [CBK263175],61.6074
16,Nc1cc(=O)[nH]c(SCC(=O)N2CCc3ccccc32)n1 [CBK307424],101.879
17,Cc1cc(COc2nccnc2OC2CCN(CC(=O)Nc3c(C)cccc3C)CC2)no1 [CBK082958T],75.6028
18,CC(C)(CNC(=O)c1ccc(=O)n(CC(=O)NC2CCCCC2)c1)c1ccc(F)cc1 [CBK285984],98.268
19,CCn1cc(S(=O)(=O)NC2(c3ccc(F)cc3)CC2)c(C)n1 [CBK282837],86.3727
20,Cc1cccc(CNc2nccnc2-c2cccc(Cl)c2)c1 [CBK037527],114.593
21,O=C(Nc1ccc([C@@H](O)[C@H]2COCC(=O)N2Cc2ccc(F)cc2)cc1)c1cccnc1 [CBK289062],118.682
22,COc1cc(F)cc(OC2CCNCC2)c1NC(=O)c1c(-c2ccccc2)noc1C [CBK050350T],86.0264
23,CN(c1ncccc1CNC(=O)c1c[nH]c(=O)c(Cl)c1)C1CCCCC1 [CBK307267],72.97
24,CCCCCCC1N=NC(c2ccc(F)cc2)=CN1O (stereo not shown) [CBK019298],67.8299
25,O=S(=O)(c1ccc(C(F)(F)F)cc1Cl)N1CCCN(Cc2ccnc3ccccc23)CC1 [CBK062942],98.5141
